Structures are written as SMILES. Screen size: about 52,000 compounds; about 1,700 (3.3%) were called active. No stated cut-off is given here; in the data, active means survival mostly below about 52% (no sharp cut-off); inactive means mostly above about 56%. This is one part of the list.

The subject of the experiment is Wild type. The experiment can be described thus: S. aureus survival, RN4220 and DeltatarO strains – OD600, teichoic acid synthesis inhibitors, primary screen (AID 463173). To be noted: S. aureus RN4220 wild type/DeltatarO growth, OD600, 18 h, stronger effect = lower value, screened at 18.75 µg/mL (by protocol).
For the molecule `COc1cc2c(cc1OC)C(C)N(C(=O)CN1CCOCC1)CC2` (configuration not stated), the survival was inactive: 97%.

For `CCOc1cc(-n2cnnn2)c(OCC)cc1NC(=O)c1cc2cccc(OC)c2oc1=O`, the survival was inactive: 104%.

In the case of `CC(NC(=O)CCCn1c(=O)c2cccn2c2cccnc21)c1ccccc1` (configuration not stated), the survival was inactive: 86%.

On to `COc1ccc(OC)c(CNC(=O)Cc2ccc(NC(=O)N3CCCCc4ccccc43)cc2)c1`, for which the survival is inactive: 73%.

Consider `COCCCNC(=O)c1c(NC(=O)Cc2coc3cc(C)cc(C)c23)sc2c1CCCC2`, for which the survival is inactive: 86%.

Consider `CCc1ccc(CNC(=O)CSc2cc(=O)n(C)c3ccc(Cl)cc23)cc1`, for which the survival is inactive: 71%.

For the molecule `CCN(CCCNC(=O)c1cc2c(=O)n(CC)c3ccccc3c2s1)c1ccccc1`, the survival is inactive: 58%.

With `O=C(c1ccc2c(c1)N(Cc1ccccc1F)C(=O)c1ccccc1S2(=O)=O)N1CCCC1`, the survival was inactive: 97%.

With `COc1ccc(-c2cc(-c3ccccc3)nc(SCC(=O)CC(=O)OC(C)C)c2C#N)cc1`, the survival is inactive: 78%.

For `CC(NC(=O)CCSCc1ccccc1F)c1ccccc1` (configuration not stated), the survival is inactive: 73%.

Regarding `COc1ccc(C(=O)N(Cc2cc(OC)c(OC)c(OC)c2)CC2CCCO2)cc1` (configuration not stated), the survival was inactive: 88%.

Take `Cc1cc(F)ccc1NCc1ccccc1-c1nnc(-c2ccccc2Cl)o1`: the survival is inactive: 83%.

Turning to `O=C(NCC(c1cccnc1)N1CCc2ccccc21)c1cccc(C(F)(F)F)c1` (configuration not stated), the survival was inactive: 70%.

As to `CC(C)OC(=O)CN1C(=O)C(C)(C)Oc2ccc(C(=O)Nc3ccccc3)cc21`, the survival is inactive: 97%.

On to `COC(=O)C1(C)NC(c2ccc(OC)cc2)C2C(=O)N(c3ccccc3)C(=O)C21` (configuration not stated), for which the survival is inactive: 105%.

Consider `COc1ccc(CCCc2nnc(SCC(=O)Nc3ccc(C)cc3C)o2)cc1`, for which the survival was inactive: 89%.

In the case of `CCN(CC)S(=O)(=O)c1cc(-c2onc(C)c2C)ccc1OC`, the survival was inactive: 87%.

Take `Cc1ccc(-c2noc(-c3nnn(CC(=O)Nc4cc(C)cc(C)c4)c3N)n2)cc1`: the survival was inactive: 111%.

As for `O=C(CSc1nccn1Cc1ccc(F)cc1)Nc1ccc2c(c1)OCCO2`, the survival was inactive: 73%.

In the case of `CCCNC(=O)CSc1nc2nc(C)c(Cc3ccccc3Cl)c(C)n2n1`, the survival was inactive: 69%.

`CCc1ccc(C(=O)c2cn(CC(=O)Nc3ccc(OC)cc3OC)c3ccc(CC)cc3c2=O)cc1`: the survival is inactive: 80%.

For the molecule `O=C1c2ccccc2C(=O)N1CCCn1nnc(-c2ccc(N3CCOCC3)cc2)n1`, the survival is inactive: 122%.

Consider `O=C(NCc1cccc(Cl)c1)C1CCN(C(=O)c2sccc2-n2cccc2)CC1`, for which the survival is inactive: 79%.

As to `COc1cccc(C(=O)Nc2cccc(C(=O)OCc3cc(=O)n4nc(C(C)C)sc4n3)c2)c1`, the survival is inactive: 70%.

Take `COc1ccc(C(C(C#N)C#N)C2C(=O)N(Cc3ccccc3)N=C2C)cc1` (configuration not stated): the survival was inactive: 98%.

Turning to `Cc1ccc(N(C)C(=O)c2cnc(N3CCOCC3)c3ccccc23)cc1C`, the survival is inactive: 72%.

Regarding `CC(=O)N1CCC(N(C(=O)Nc2c(F)cccc2F)C(C)C)CC1`, the survival was inactive: 81%.

On to `CSc1nc2sc3c(c2c(=O)n1-c1ccc(F)c(Cl)c1)CCN(C(C)=O)C3`, for which the survival was inactive: 58%.

On to `Cc1cc(C)cc(NC(=O)CSc2nc(-c3cccc(Cl)c3)nc3c2Cc2c(CO)cnc(C)c2O3)c1`, for which the survival is inactive: 132%.

In the case of `COc1ccc(CNC(=O)Cn2c(SCC(=O)Nc3ccc(C)c(C)c3)nc3ccccc32)cc1`, the survival was inactive: 74%.

On to `CCOc1ccc(-c2nc(SCC(=O)NCCOC)c(-c3ccc(OC)c(OC)c3)[nH]2)cc1`, for which the survival is inactive: 79%.

For the molecule `CCc1ccc(-n2nc(C)c3c(C(=O)Nc4cc(OC)cc(OC)c4)cc(C)nc32)cc1`, the survival is inactive: 66%.

Take `O=C(CSC1=Nc2ccccc2C2=NC(Cc3ccccc3)C(=O)N12)Nc1ccccc1F` (configuration not stated): the survival is inactive: 127%.

Consider `CCOC(=O)NC1(C(F)(F)F)NC(=O)N(c2ccc(C)c(C)c2)C1=O` (configuration not stated), for which the survival is inactive: 94%.

Consider `CCC(C(=O)NC1CCCC1)N(Cc1ccc2c(c1)OCO2)C(=O)c1snc(C(N)=O)c1N` (configuration not stated), for which the survival was inactive: 121%.

As for `COc1ccc(S(=O)(=O)NCCc2csc(-c3ccc(F)cc3)n2)cc1`, the survival was inactive: 89%.

Take `Cc1cc(C)cc(OCC(=O)Nc2ccc(S(=O)(=O)Nc3onc(C)c3C)cc2)c1`: the survival is inactive: 73%.

Turning to `NNC(=O)c1nsnc1-c1ccccc1O`, the survival is inactive: 99%.

As for `COc1ccc(-n2nc(C(=O)Nc3cccc(C(F)(F)F)c3)c3c4ccccc4n(C)c3c2=O)cc1`, the survival is inactive: 79%.

Consider `O=C(NCCN1CCOCC1)c1ccncc1`, for which the survival is inactive: 120%.

As to `Cc1nc(CC(=O)Nc2ccc(N(C)C)cc2)cs1`, the survival is inactive: 83%.

Consider `Cc1nn(CC(=O)NCc2ccccc2Cl)c(=O)c2nn(-c3ccccc3)c(C)c12`, for which the survival is inactive: 130%.

On to `Cc1ccccc1NC(=O)CSC1=Nc2ccccc2C2=NC(CCC(=O)NCc3ccccc3)C(=O)N12` (configuration not stated), for which the survival is inactive: 85%.

As for `COC(=O)CN1C(=O)CSc2ccc(S(=O)(=O)N3CCOCC3)cc21`, the survival is inactive: 128%.

`COC(=O)c1sccc1S(=O)(=O)N(CC(=O)NCc1ccc(C)cc1)c1ccc(Cl)cc1`: the survival was inactive: 76%.

Turning to `Cc1ccc(N2C(=O)C3C4C=CC(CNC(=O)OCc5ccccc5)(O4)C3C2=O)cc1` (configuration not stated), the survival was inactive: 100%.

With `COc1ccc(C(=O)Nc2ccc3nc(SCC(=O)N4CCCc5ccccc54)sc3c2)cc1`, the survival is inactive: 118%.

Regarding `CCN(CC)C(=O)c1sc2c(c1C)c(=O)n(-c1ccc(Cl)c(Cl)c1)c(=O)n2Cc1cc(=O)n2c(C)cccc2n1`, the survival is active: 0%.

Turning to `COc1ccccc1CNC(=O)CN1C(=O)COc2ccc(S(=O)(=O)N3CCCCC3)cc21`, the survival is inactive: 86%.

With `O=S(=O)(NCc1cccc(Br)c1)c1ccc(-c2cc(C(F)(F)F)on2)s1`, the survival is inactive: 53%.

As to `Cc1cc(C)cc(N2C(=O)N(CC(=O)c3ccc(Br)cc3)c3ccccc3S2(=O)=O)c1`, the survival was inactive: 84%.

On to `Cc1ccc(-c2nc(C)c(CCNS(=O)(=O)c3ccccc3F)s2)cc1`, for which the survival was inactive: 67%.

`CCCCn1cc(S(=O)(=O)c2ccc(OC)cc2)c(=O)c2cc(F)c(N3CCCC3)cc21`: the survival was inactive: 82%.

As for `CCOc1ccc(NC(=O)Cn2cc(C(=O)c3ccc(C)c(C)c3)c(=O)c3cc4c(cc32)OCCO4)cc1`, the survival was inactive: 80%.

For `Cc1ccccc1-c1nnc(SCC(=O)Oc2c(C)cccc2C)o1`, the survival was inactive: 102%.

On to `CN1C(=O)C(C)(C)c2cc(S(=O)(=O)NCc3ccc(C(=O)Nc4ccc(Cl)cc4)cc3)ccc21`, for which the survival is inactive: 89%.

For `Cc1cccc(NC(=O)N2CCC(CN3CCc4ccccc4C3)CC2)c1C`, the survival is active: -4%.

With `CCC(C)(C)n1nnnc1CN(Cc1ccccc1)Cc1cc2cc(OC)ccc2[nH]c1=O`, the survival is inactive: 107%.

Regarding `O=C1C(=O)N(C2CCN(S(=O)(=O)c3ccc(F)cc3)CC2)CCN1Cc1ccccc1`, the survival is inactive: 128%.

Regarding `CCN(C(=O)c1oc2ccc(S(=O)(=O)N3CCCCCC3)cc2c1C)c1ccccc1`, the survival is inactive: 135%.

As to `CCOC(=O)c1cccc(NC(=O)CN2C(=O)CC(C)(C)Sc3ccccc32)c1`, the survival is inactive: 79%.

With `CCOC(=O)c1cc(S(=O)(=O)N2CCN(c3ccc(OC)cc3)CC2)[nH]n1`, the survival was inactive: 121%.

On to `Cc1ccc(NC(=O)CSc2nncn2N)cc1C`, for which the survival was inactive: 108%.

For the molecule `Cc1cccc(C)c1OCc1nc2c3cnn(-c4cccc(F)c4)c3ncn2n1`, the survival is inactive: 94%.

Turning to `COc1ccc(CCNC(=O)CCCn2c(=O)c3ccccc3n(Cc3ccccc3C)c2=O)cc1OC`, the survival is inactive: 98%.

As to `Cc1ccc(-n2ncc(C(=O)NCCN3CCc4ccccc4C3)c2C2CCN(C(=O)OC(C)(C)C)CC2)cc1`, the survival is inactive: 89%.

Turning to `Cc1ccc(Nc2c(-c3ccc(N4CCOCC4)cc3)nc3ncccn23)cc1`, the survival is inactive: 131%.

`Cc1ccc(C(=O)Nc2c(C(=O)NCc3ccc(Cl)cc3)sc3nc(C)cc(C)c23)cc1`: the survival is inactive: 82%.

Consider `COCCN(Cc1cc2cc(C)c(C)cc2nc1Cl)C(C)=O`, for which the survival is inactive: 102%.

As to `CCCCn1c2ccc(F)cc2c2nnc(SCCN(CC)CC)nc21`, the survival is inactive: 136%.

In the case of `Cc1ccc(CNC(=O)c2c3c(nc4ccccc24)C(=O)N(C2CCCCC2)C3)cc1`, the survival was inactive: 81%.

On to `Cc1csc2nc(COC(=O)c3ccccc3NC(=O)c3ccc(F)cc3)cc(=O)n12`, for which the survival was active: 14%.

As to `COc1cccc(NC(=O)CSc2nc3ccccc3nc2N2CCOCC2)c1`, the survival is inactive: 67%.

On to `CCc1ccc(CN2C(=O)c3ccccc3C2C(=O)NCCc2ccc(OC)c(OC)c2)cc1` (configuration not stated), for which the survival is inactive: 70%.

In the case of `CN(CC(=O)Nc1cccc(C(F)(F)F)c1)S(=O)(=O)c1ccc2[nH]c3c(c2c1)CCCC3`, the survival is inactive: 71%.

With `COc1ccc(Cl)cc1NC(=O)CSc1nccn1Cc1ccco1`, the survival was inactive: 73%.

`COc1ccc(CC(=O)NCc2nc3cccnc3n2Cc2ccc(F)cc2)cc1OC`: the survival was inactive: 73%.

On to `Cc1ccccc1NC(=O)c1sc2nc3c(cc2c1N)CCCC3`, for which the survival is inactive: 74%.

As to `Cc1ccc(C)c(N2CCN(C(=O)c3ccc(CS(=O)(=O)c4ccc(Br)cc4)o3)CC2)c1`, the survival is inactive: 145%.

With `CCOc1cc2[nH]c(=O)n(Cc3ccc(C(=O)NCCN(CC)CC)cc3)c(=O)c2cc1OCC`, the survival is inactive: 80%.

As for `COc1ccc(NC(=O)c2cc3c(=O)[nH]c4ccccc4c3n2C)cc1Cl`, the survival is inactive: 72%.

On to `O=C(CN1CCOCC1)Nc1ccc(Cl)c(NC(=O)c2ccc(Cl)cc2)c1`, for which the survival is inactive: 108%.

For `CCCN(C(=O)CCc1nc(-c2ccccc2F)no1)c1ccc(CC)cc1`, the survival is active: -2%.

For the molecule `NC(=O)CSc1nnc(-c2ccccc2)n1-c1ccccc1`, the survival was inactive: 99%.

On to `Cc1ccc(S(=O)(=O)Nc2cc3c(cc2NCc2ccccc2)n(C)c(=O)n3C)c(C)c1`, for which the survival is inactive: 72%.

As for `CCN1CCN(CC(=O)NC23CC4CC(CC(C4)C2)C3)CC1`, the survival was inactive: 105%.

As to `O=C(CSCc1cccc(F)c1)NCc1ccccc1`, the survival is inactive: 85%.
